# The supplement of paper PMC8728848
# Some of the results follow.
# B1: CLEC5A (Homo sapiens), Q9NY25 (protein)
# chain: MNWHMIISGLIVVVLKVVGMTLFLLYFPQIFNKSNDGFTTTRSYGTVSQIFGSSSPSPNGFITTRSYGTVCPKDWEFYQARCFFLSTSESSWNESRDFCKGKGSTLAIVNTPEKLKFLQDITDAEKYFIGLIYHREEKRWRWINNSVFNGNVTNQNQNFNCATIGLTKTFDAASCDISYRRICEKNAK
# Experiments:
# Test in all cases: glycan array binding signal (z-score within array); higher = stronger binding
# Settings in all cases: glycan notation: IUPAC condensed, linker removed
# [1] = biological target: Fuc(a1-2)Gal(b1-4)[Fuc(a1-3)]GlcNAc(b1-3)[Neu5Ac(a2-6)Gal(b1-4)GlcNAc(b1-6)]Gal(b1-4)Glc
# Outline: (§1)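 Negative Z-scores can be read as non-binding. The Z-score is calculated within each array and then averaged across arrays of one protein sequence at different concentrations or buffers and across linkers. Arrays, 3228 in all, were curated from the Consortium for Functional Glycomics database and kept only where the protein sequence was available.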
# [2] = biological target: Fuc(a1-2)Gal3S(b1-4)GlcNAc
# Outline: as §1
# [3] = biological target: Fuc(a1-2)Gal6S(b1-3)GlcNAc
# Outline: as §1
# [4] = biological target: Fuc(a1-2)Gal6S(b1-3)GlcNAc6S
# Outline: as §1
# Fuc(a1-2)Gal6S(b1-4)Glc = biological target: Fuc(a1-2)Gal6S(b1-4)Glc
# Outline: as §1
# [5] = biological target: Fuc(a1-2)Gal6S(b1-4)Glc6S
# Outline: as §1
# [6] = biological target: Fuc(a1-2)Gal6S(b1-4)GlcNAc
# Outline: as §1
# Fuc(a1-2)GlcNAc = biological target: Fuc(a1-2)GlcNAc
# Outline: as §1
# Fuc(a1-2)[Gal(a1-3)]Gal = biological target: Fuc(a1-2)[Gal(a1-3)]Gal
# Outline: as §1
# [7] = biological target: Fuc(a1-2)[Gal(a1-3)]Gal(b1-3)GalNAc
# Outline: as §1
# [8] = biological target: Fuc(a1-2)[Gal(a1-3)]Gal(b1-3)GalNAc(b1-3)Gal(a1-4)Gal(b1-4)Glc
# Outline: as §1
# [9] = biological target: Fuc(a1-2)[Gal(a1-3)]Gal(b1-3)GlcNAc
# Outline: as §1
# [10] = biological target: Fuc(a1-2)[Gal(a1-3)]Gal(b1-3)GlcNAc(b1-2)Man(a1-3)[Fuc(a1-2)[Gal(a1-3)]Gal(b1-3)GlcNAc(b1-2)Man(a1-6)]Man(b1-4)GlcNAc(b1-4)GlcNAc
# Outline: as §1
# [11] = biological target: Fuc(a1-2)[Gal(a1-3)]Gal(b1-3)GlcNAc(b1-2)Man(a1-3)[Fuc(a1-2)[Gal(a1-3)]Gal(b1-3)GlcNAc(b1-2)Man(a1-6)]Man(b1-4)GlcNAc(b1-4)[Fuc(a1-6)]GlcNAc
# Outline: as §1
# [12] = biological target: Fuc(a1-2)[Gal(a1-3)]Gal(b1-3)GlcNAc(b1-3)GalNAc
# Outline: as §1
# [13] = biological target: Fuc(a1-2)[Gal(a1-3)]Gal(b1-3)GlcNAc(b1-6)GalNAc
# Outline: as §1
# [14] = biological target: Fuc(a1-2)[Gal(a1-3)]Gal(b1-4)Glc
# Outline: as §1
# [15] = biological target: Fuc(a1-2)[Gal(a1-3)]Gal(b1-4)GlcNAc
# Outline: as §1
# [16] = biological target: Fuc(a1-2)[Gal(a1-3)]Gal(b1-4)GlcNAc(b1-2)Man
# Outline: as §1
# [17] = biological target: Fuc(a1-2)[Gal(a1-3)]Gal(b1-4)GlcNAc(b1-2)Man(a1-3)[Fuc(a1-2)[Gal(a1-3)]Gal(b1-4)GlcNAc(b1-2)Man(a1-6)]Man(b1-4)GlcNAc(b1-4)GlcNAc
# Outline: as §1
# [18] = biological target: Fuc(a1-2)[Gal(a1-3)]Gal(b1-4)GlcNAc(b1-2)Man(a1-3)[Fuc(a1-2)[Gal(a1-3)]Gal(b1-4)GlcNAc(b1-2)Man(a1-6)]Man(b1-4)GlcNAc(b1-4)[Fuc(a1-6)]GlcNAc
# Outline: as §1
# [19] = biological target: Fuc(a1-2)[Gal(a1-3)]Gal(b1-4)GlcNAc(b1-3)Gal(b1-4)Glc
# Outline: as §1
# [20] = biological target: Fuc(a1-2)[Gal(a1-3)]Gal(b1-4)GlcNAc(b1-3)GalNAc
# Outline: as §1
# [21] = biological target: Fuc(a1-2)[Gal(a1-3)]Gal(b1-4)GlcNAc(b1-3)[Fuc(a1-2)[Gal(a1-3)]Gal(b1-4)GlcNAc(b1-6)]GalNAc
# Outline: as §1
# [22] = biological target: Fuc(a1-2)[Gal(a1-3)]Gal(b1-4)GlcNAc(b1-6)GalNAc
# Outline: as §1
# [23] = biological target: Fuc(a1-2)[Gal(a1-3)]Gal(b1-4)[Fuc(a1-3)]Glc
# Outline: as §1
# [24] = biological target: Fuc(a1-2)[Gal(a1-3)]Gal(b1-4)[Fuc(a1-3)]GlcNAc
# Outline: as §1
# [25] = biological target: Fuc(a1-2)[Gal(a1-3)]Gal(b1-4)[Fuc(a1-3)]GlcNAc(b1-3)GalNAc
# Outline: as §1
# [26] = biological target: Fuc(a1-2)[Gal(a1-4)]Gal(b1-4)GlcNAc
# Outline: as §1
# [27] = biological target: Fuc(a1-2)[GalNAc(a1-3)]Gal
# Outline: as §1
# [28] = biological target: Fuc(a1-2)[GalNAc(a1-3)]Gal(b1-3)GalNAc(a1-3)[Fuc(a1-2)]Gal(b1-4)GlcNAc
# Outline: as §1
# [29] = biological target: Fuc(a1-2)[GalNAc(a1-3)]Gal(b1-3)GalNAc(b1-3)Gal(a1-4)Gal(b1-4)Glc
# Outline: as §1
# [30] = biological target: Fuc(a1-2)[GalNAc(a1-3)]Gal(b1-3)GlcNAc
# Outline: as §1
# [31] = biological target: Fuc(a1-2)[GalNAc(a1-3)]Gal(b1-3)GlcNAc(b1-2)Man(a1-3)[Fuc(a1-2)[GalNAc(a1-3)]Gal(b1-3)GlcNAc(b1-2)Man(a1-6)]Man(b1-4)GlcNAc(b1-4)GlcNAc
# Outline: as §1
# [32] = biological target: Fuc(a1-2)[GalNAc(a1-3)]Gal(b1-3)GlcNAc(b1-2)Man(a1-3)[Fuc(a1-2)[GalNAc(a1-3)]Gal(b1-3)GlcNAc(b1-2)Man(a1-6)]Man(b1-4)GlcNAc(b1-4)[Fuc(a1-6)]GlcNAc
# Outline: as §1
# [33] = biological target: Fuc(a1-2)[GalNAc(a1-3)]Gal(b1-3)GlcNAc(b1-3)Gal(b1-4)Glc
# Outline: as §1
# [34] = biological target: Fuc(a1-2)[GalNAc(a1-3)]Gal(b1-3)GlcNAc(b1-3)GalNAc
# Outline: as §1
# [35] = biological target: Fuc(a1-2)[GalNAc(a1-3)]Gal(b1-3)GlcNAc(b1-6)GalNAc
# Outline: as §1
# [36] = biological target: Fuc(a1-2)[GalNAc(a1-3)]Gal(b1-3)[Fuc(a1-4)]GlcNAc(b1-3)Gal(b1-4)Glc
# Outline: as §1
# [37] = biological target: Fuc(a1-2)[GalNAc(a1-3)]Gal(b1-4)Glc
# Outline: as §1
# [38] = biological target: Fuc(a1-2)[GalNAc(a1-3)]Gal(b1-4)GlcNAc
# Outline: as §1
# [39] = biological target: Fuc(a1-2)[GalNAc(a1-3)]Gal(b1-4)GlcNAc(b1-2)Man
# Outline: as §1
# [40] = biological target: Fuc(a1-2)[GalNAc(a1-3)]Gal(b1-4)GlcNAc(b1-2)Man(a1-3)[Fuc(a1-2)[GalNAc(a1-3)]Gal(b1-4)GlcNAc(b1-2)Man(a1-6)]Man(b1-4)GlcNAc(b1-4)GlcNAc
# Outline: as §1
# [41] = biological target: Fuc(a1-2)[GalNAc(a1-3)]Gal(b1-4)GlcNAc(b1-2)Man(a1-3)[Fuc(a1-2)[GalNAc(a1-3)]Gal(b1-4)GlcNAc(b1-2)Man(a1-6)]Man(b1-4)GlcNAc(b1-4)[Fuc(a1-6)]GlcNAc
# Outline: as §1
# [42] = biological target: Fuc(a1-2)[GalNAc(a1-3)]Gal(b1-4)GlcNAc(b1-3)Gal(b1-4)GlcNAc
# Outline: as §1
# [43] = biological target: Fuc(a1-2)[GalNAc(a1-3)]Gal(b1-4)GlcNAc(b1-3)Gal(b1-4)GlcNAc(b1-3)Gal(b1-4)GlcNAc
# Outline: as §1
# [44] = biological target: Fuc(a1-2)[GalNAc(a1-3)]Gal(b1-4)GlcNAc(b1-3)GalNAc
# Outline: as §1
# [45] = biological target: Fuc(a1-2)[GalNAc(a1-3)]Gal(b1-4)GlcNAc(b1-3)[Fuc(a1-2)[GalNAc(a1-3)]Gal(b1-4)GlcNAc(b1-6)]GalNAc
# Outline: as §1
# [46] = biological target: Fuc(a1-2)[GalNAc(a1-3)]Gal(b1-4)GlcNAc(b1-6)GalNAc
# Outline: as §1
# [47] = biological target: Fuc(a1-2)[GalNAc(a1-3)]Gal(b1-4)[Fuc(a1-3)]GlcNAc
# Outline: as §1
# [48] = biological target: Fuc(a1-2)[GalNAc(a1-3)]Gal(b1-4)[Fuc(a1-3)]GlcNAc(b1-3)GalNAc
# Outline: as §1
# [49] = biological target: Fuc(a1-2)[GalNAc(a1-4)]Gal(b1-4)GlcNAc
# Outline: as §1
# [50] = biological target: Fuc(a1-2)[GalNAc(b1-3)]Gal
# Outline: as §1
# [51] = biological target: Fuc(a1-2)[Neu5Ac(bond)]Gal(b1-3)GlcNAc(b1-3)Gal(b1-4)Glc
# Outline: as §1
# Fuc(a1-3)GlcNAc = biological target: Fuc(a1-3)GlcNAc
# Outline: as §1
# Fuc(a1-3)GlcNAc6S = biological target: Fuc(a1-3)GlcNAc6S
# Outline: as §1
# [52] = biological target: Fuc(a1-3)[3dGal(b1-4)]Glc
# Outline: as §1
# [53] = biological target: Fuc(a1-3)[3dGal(b1-4)]GlcNAc(b1-3)Gal
# Outline: as §1
# [54] = biological target: Fuc(a1-3)[Gal(b1-4)]Glc6S
# Outline: as §1
# [55] = biological target: Fuc(a1-3)[Gal(b1-4)]GlcNAc
# Outline: as §1
binder,measurement,setting,value
B1,glycan array binding signal (z-score),[1],-0.136
same,glycan array binding signal (z-score),[2],0.011
same,glycan array binding signal (z-score),[3],-0.07
same,glycan array binding signal (z-score),[4],0.437
same,glycan array binding signal (z-score),Fuc(a1-2)Gal6S(b1-4)Glc,0.131
same,glycan array binding signal (z-score),[5],-0.512
same,glycan array binding signal (z-score),[6],1.13
same,glycan array binding signal (z-score),Fuc(a1-2)GlcNAc,-0.133
same,glycan array binding signal (z-score),Fuc(a1-2)[Gal(a1-3)]Gal,-0.247
same,glycan array binding signal (z-score),[7],-0.162
same,glycan array binding signal (z-score),[8],-0.152
same,glycan array binding signal (z-score),[9],-0.016
same,glycan array binding signal (z-score),[10],-0.16
same,glycan array binding signal (z-score),[11],-0.137
same,glycan array binding signal (z-score),[12],-0.125
same,glycan array binding signal (z-score),[13],-0.164
same,glycan array binding signal (z-score),[14],-0.277
same,glycan array binding signal (z-score),[15],-0.453
same,glycan array binding signal (z-score),[16],-0.113
same,glycan array binding signal (z-score),[17],0.116
same,glycan array binding signal (z-score),[18],-0.131
same,glycan array binding signal (z-score),[19],-0.32
same,glycan array binding signal (z-score),[20],-0.159
same,glycan array binding signal (z-score),[21],2
same,glycan array binding signal (z-score),[22],-0.177
same,glycan array binding signal (z-score),[23],-0.09
same,glycan array binding signal (z-score),[24],0.02
same,glycan array binding signal (z-score),[25],-0.19
same,glycan array binding signal (z-score),[26],-0.354
same,glycan array binding signal (z-score),[27],-0.165
same,glycan array binding signal (z-score),[28],0.024
same,glycan array binding signal (z-score),[29],-0.199
same,glycan array binding signal (z-score),[30],-0.185
same,glycan array binding signal (z-score),[31],-0.158
same,glycan array binding signal (z-score),[32],-0.21
same,glycan array binding signal (z-score),[33],-0.32
same,glycan array binding signal (z-score),[34],-0.026
same,glycan array binding signal (z-score),[35],-0.149
same,glycan array binding signal (z-score),[36],-0.32
same,glycan array binding signal (z-score),[37],0.033
same,glycan array binding signal (z-score),[38],-0.177
same,glycan array binding signal (z-score),[39],-0.218
same,glycan array binding signal (z-score),[40],0.322
same,glycan array binding signal (z-score),[41],0.189
same,glycan array binding signal (z-score),[42],0.56
same,glycan array binding signal (z-score),[43],-0.237
same,glycan array binding signal (z-score),[44],-0.193
same,glycan array binding signal (z-score),[45],0.006
same,glycan array binding signal (z-score),[46],-0.068
same,glycan array binding signal (z-score),[47],-0.006
same,glycan array binding signal (z-score),[48],2.38
same,glycan array binding signal (z-score),[49],-0.085
same,glycan array binding signal (z-score),[50],-0.234
same,glycan array binding signal (z-score),[51],-0.32
same,glycan array binding signal (z-score),Fuc(a1-3)GlcNAc,-0.109
same,glycan array binding signal (z-score),Fuc(a1-3)GlcNAc6S,-0.32
same,glycan array binding signal (z-score),[52],-0.32
same,glycan array binding signal (z-score),[53],0.644
same,glycan array binding signal (z-score),[54],0.031
same,glycan array binding signal (z-score),[55],-0.028
